{
  "source": "PubChem BioAssay AID504339",
  "about": "(National Center for Advancing Translational Sciences (NCATS), 2011)",
  "note": "Where “and” joins values, the source holds several entries; their conditions need not be identical. Equal values may be shown once. The campaign covered roughly 390,000 compounds. About 17,000 (4.4%) were called active. The shares of active, inactive and inconclusive entries below differ from those in the screen. Calls come from the whole dose curve; as a rule, active = well fitted inhibition curve with a large enough effect; inconclusive = small, poorly fitted or top-dose-only effect; inactive = no such curve, though single readings can be large or run the other way. A potency beside an inconclusive call is a rough fit, not a confirmed value. Potency is the fitted concentration of half-maximal effect; tags give direction and shape of the fitted curve.",
  "data": [
    {"biological_target": "Lysine-specific demethylase 4A (Homo sapiens) (UniProt O75164)", "sequence (O75164 whole entry, looked up, the tested form may be a part)": "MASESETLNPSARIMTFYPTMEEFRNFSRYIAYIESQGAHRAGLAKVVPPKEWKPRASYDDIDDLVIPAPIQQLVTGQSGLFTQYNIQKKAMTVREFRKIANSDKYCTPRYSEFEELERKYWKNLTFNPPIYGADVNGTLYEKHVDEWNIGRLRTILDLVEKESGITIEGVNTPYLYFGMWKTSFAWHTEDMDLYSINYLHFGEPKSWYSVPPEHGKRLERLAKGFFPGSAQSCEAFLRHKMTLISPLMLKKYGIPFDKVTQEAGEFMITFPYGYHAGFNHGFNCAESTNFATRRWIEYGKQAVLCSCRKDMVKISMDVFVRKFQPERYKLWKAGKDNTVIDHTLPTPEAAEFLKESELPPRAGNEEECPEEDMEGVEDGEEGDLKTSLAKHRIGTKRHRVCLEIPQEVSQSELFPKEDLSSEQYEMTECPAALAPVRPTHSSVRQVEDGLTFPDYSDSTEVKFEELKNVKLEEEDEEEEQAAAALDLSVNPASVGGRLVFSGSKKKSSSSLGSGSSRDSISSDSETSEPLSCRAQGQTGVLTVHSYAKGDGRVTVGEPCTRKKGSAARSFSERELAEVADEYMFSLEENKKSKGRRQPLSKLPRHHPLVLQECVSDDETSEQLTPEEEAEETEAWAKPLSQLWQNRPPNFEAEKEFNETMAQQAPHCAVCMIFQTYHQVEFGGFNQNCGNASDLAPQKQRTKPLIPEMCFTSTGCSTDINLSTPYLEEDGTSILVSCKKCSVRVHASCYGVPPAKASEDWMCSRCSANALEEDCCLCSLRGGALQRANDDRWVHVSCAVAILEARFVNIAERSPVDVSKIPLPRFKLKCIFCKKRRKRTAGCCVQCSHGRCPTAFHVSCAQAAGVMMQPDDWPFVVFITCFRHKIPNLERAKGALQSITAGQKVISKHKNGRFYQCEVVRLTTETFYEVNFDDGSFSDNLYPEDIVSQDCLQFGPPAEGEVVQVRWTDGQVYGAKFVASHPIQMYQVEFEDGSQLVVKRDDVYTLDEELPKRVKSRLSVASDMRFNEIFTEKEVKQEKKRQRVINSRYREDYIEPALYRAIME", "assay": "qHTS Assay for Inhibitors of JMJD2A-Tudor Domain; note: nearly all actives have a fitted effect of over 50% in size", "details": "AlphaScreen JMJD2A-Tudor / H3K4me3 peptide binding; series mostly up to 114 µM", "values": [
      {"smiles": "Cc1cc(C)c(C)c(OCCN2CC(C)OC(C)C2)c1", "note": "(stereo unspecified)", "Potency": "active: 5.62 µM"},
      {"smiles": "CCOC(=O)c1c(NC(C)=O)sc2c(OCC(O)CN(CC)CC)c(Br)ccc12", "note": "(stereo unspecified)", "Potency": "inconclusive: 35.5 µM [inhibitor, partial curve]"},
      {"smiles": "CSc1ncc(C(=O)Nc2cccc(Cl)c2C)c(-c2ccccc2)n1", "Potency": "inactive"},
      {"smiles": "Cc1nc2sc3c(c2c2nnc(SCC(=O)NCc4ccco4)n12)CCCC3", "Potency": "inconclusive: 79.4 µM [inhibitor, partial curve]"},
      {"smiles": "Cc1ccccc1NC(=O)c1ccc(CNS(=O)(=O)c2ccc3c(c2)C(C)(C)C(=O)N3C)cc1", "Potency": "inactive"},
      {"smiles": "COc1ccc(Cn2ccnc2)cc1Br", "Potency": "inconclusive: 100 µM [inhibitor, partial curve]"},
      {"smiles": "Cc1ccc(Cl)cc1N(C)C(=O)c1cc2ccc3cccnc3c2[nH]1", "Potency": "inconclusive: 56.2 µM [inhibitor, partial curve]"},
      {"smiles": "CCNC(=O)CC1C(=O)N(c2ccc(F)cc2)C(=O)N1Cc1ccc(C)cc1", "note": "(stereo unspecified)", "Potency": "inactive"},
      {"smiles": "C[C@H](CO)N1C[C@H](C)[C@@H](CN(C)C(=O)Nc2ccc3c(c2)OCO3)Oc2c(NC(=O)c3ccncc3)cccc2C1=O", "Potency": "inactive"},
      {"smiles": "O=C(CCN1C(=O)/C(=C\\c2ccco2)SC1=S)Nc1ccc(C(=O)O)c(O)c1", "Potency": "active: 56.2 µM"},
      {"smiles": "Cc1cc(C(=O)COC(=O)CNC(=O)c2ccc(F)cc2)c(C)n1Cc1ccco1", "Potency": "inconclusive: 56.2 µM [inhibitor, partial curve]"},
      {"smiles": "COCCN1C(=O)C(=O)/C(=C(/O)c2ccc3c(c2)OCCO3)C1c1ccc(C(=O)OC)cc1", "note": "(stereo unspecified)", "Potency": "active: 44.7 µM"},
      {"smiles": "CCOc1cccc(CN2CCCC(N3CCN(c4cccc(Cl)c4)CC3)C2)c1O", "note": "(stereo unspecified)", "Potency": "inconclusive: 44.7 µM [inhibitor, partial curve]"},
      {"smiles": "O=C(COC(=O)c1ccc(S(=O)(=O)NCc2ccco2)cc1)NCC1CCCCC1", "Potency": "inconclusive: 50.1 µM [inhibitor, partial curve]"},
      {"smiles": "Cc1nn(CC(=O)NCc2ccccc2Br)c(=O)c2cc3occc3n12", "Potency": "inactive"},
      {"smiles": "Cc1ccc(S(=O)(=O)N2CCCc3cc(NC(=O)c4c(F)cccc4F)ccc32)cc1", "Potency": "inconclusive: 17.8 µM [inhibitor, full curve]"},
      {"smiles": "O=C(COC(=O)c1nc(Cl)ccc1Cl)NC1CCCCC1", "Potency": "inactive"},
      {"smiles": "O=C(COc1ccccc1F)Nc1nnc(-c2ccncc2)s1", "Potency": "active: 20 µM"},
      {"smiles": "Cc1cccc(-c2noc(-c3ccccc3C(=O)NCc3ccco3)n2)c1", "Potency": "inconclusive: 79.4 µM [inhibitor, single point]"},
      {"smiles": "COC(=O)N/N=C/c1cc(N=Nc2ccccc2Cl)ccc1O", "Potency": "inconclusive: 56.2 µM [inhibitor, partial curve]"},
      {"smiles": "Cc1ccsc1C(=O)N1CCN(C(=O)c2ccco2)CC1", "Potency": "inconclusive: 0.562 µM [inhibitor, full curve, poor fit]"},
      {"smiles": "Cc1cccc(OCCCCn2c(C3CC(=O)N(c4ccc(C)cc4C)C3)nc3ccccc32)c1", "note": "(stereo unspecified)", "Potency": "inconclusive: 56.2 µM [inhibitor, partial curve]"},
      {"smiles": "COc1ccccc1Oc1nc2c(c(=O)n(Cc3ccccc3F)c(=O)n2C)n1C", "Potency": "inconclusive: 89.1 µM [inhibitor, single point]"},
      {"smiles": "COc1cccc(OCc2nn3c(=O)c(-c4ccccc4)nnc3s2)c1", "Potency": "inactive"},
      {"smiles": "C/C(=N\\NC(=O)c1cccc(Br)c1)c1ccccn1", "Potency": "active: 22.4 µM"},
      {"smiles": "COc1ccccc1NC(=O)C1CCCN(S(=O)(=O)c2cccc3nsnc23)C1", "note": "(stereo unspecified)", "Potency": "inactive"},
      {"smiles": "Cc1nn(-c2ccccc2)c(Cl)c1/C=N/NS(=O)(=O)c1ccc(Br)cc1", "Potency": "inactive"},
      {"smiles": "C=CCCC(=O)Nc1nc(C)c(-c2csc(Nc3cc(OC)ccc3OC)n2)s1", "Potency": "active: 35.5 µM"},
      {"smiles": "CC(=O)NNc1nc(-c2ccccc2)cs1", "Potency": "inconclusive: 3.98 µM [inhibitor, full curve, poor fit]"},
      {"smiles": "Cc1cccc(C)c1Nc1c(-c2ccccc2O)nc2ncccn12", "Potency": "inactive and inconclusive: 25.1 µM [inhibitor, full curve]"},
      {"smiles": "CCN(CC)CCn1c(NCc2cc(OC)ccc2OC)nc2ccccc21", "Potency": "active: 50.1 µM"},
      {"smiles": "c1ccc(-c2ccc(-c3ccccc3)[nH]2)cc1", "Potency": "inconclusive: 28.2 µM [inhibitor, full curve]"},
      {"smiles": "CC(C)(O)CCc1c(-c2ccc(O)cc2O)oc2c3c(cc(O)c2c1=O)OC(C)(C)C=C3", "Potency": "inconclusive: 50.1 µM [inhibitor, partial curve]"},
      {"smiles": "COC(=O)[C@]1(C)N[C@H](CN(C)S(=O)(=O)c2ccc(F)cc2)[C@@H]2C(=O)N(Cc3ccccc3)C(=O)[C@@H]21", "Potency": "inconclusive: 89.1 µM [inhibitor, single point]"},
      {"smiles": "Cc1cc(C(=O)C[N+]2(C)CCOCC2)c(C)n1-c1ccc(Br)cc1", "Potency": "inconclusive: 89.1 µM [inhibitor, partial curve]"},
      {"smiles": "Nc1ccccc1C(=O)NNc1c2ccccc2nc2ccccc12", "Potency": "active: 31.6 µM"},
      {"smiles": "CCCCCCC(=O)Nc1nc(C)c(-c2csc(Nc3cc(OC)ccc3OC)n2)s1", "Potency": "active: 50.1 µM"},
      {"smiles": "S=c1nc(C2CC2)[nH]c2ccccc12", "Potency": "inconclusive: 89.1 µM [inhibitor, single point]"},
      {"smiles": "C=CCN(Cc1cc(OC)ccc1OC)C(=O)c1cc2ccc(OC)cc2[nH]1", "Potency": "inconclusive: 28.2 µM [inhibitor, full curve]"},
      {"smiles": "COc1ccccc1-c1nc(C#N)c(N2CCN(c3cccc(Cl)c3)CC2)o1", "Potency": "inconclusive: 8.91 µM [inhibitor, full curve]"},
      {"smiles": "CCSc1nc2c(c(=O)n1Cc1ccccc1)SC(C)C2", "note": "(stereo unspecified)", "Potency": "inconclusive: 63.1 µM [inhibitor, partial curve, poor fit]"},
      {"smiles": "N#Cc1c(NC(=O)CSc2ncnc3sccc23)oc(-c2ccco2)c1-c1ccco1", "Potency": "active: 79.4 µM"},
      {"smiles": "Cc1ccc(S(=O)(=O)N2CCC(C(=O)N/N=C/c3ccncc3)CC2)cc1", "Potency": "inactive"},
      {"smiles": "Cc1ccc(/C=C/C(=O)Nc2ccc([N+](=O)[O-])cc2)o1", "Potency": "inactive"},
      {"smiles": "Cc1ccccc1/C=N/NC(=O)Cn1cnc([N+](=O)[O-])n1", "Potency": "inactive"},
      {"smiles": "Cn1c(=O)c(C(=O)CN2CCCc3ccccc32)c(N)n(Cc2ccccc2)c1=O", "Potency": "inconclusive: 50.1 µM [inhibitor, partial curve]"}
    ]}
  ]
}
